These results are taken from article PMC4207660, “Identification and Characterization of Hundreds of Potent and Selective Inhibitors of Trypanosoma brucei Growth from a Kinase-Targeted Library Screening Campaign” (PLoS Neglected Tropical Diseases, 2014).

In data set [1] the test system is T. brucei brucei parasites (Lister 427 strain). Nature of the data set: Dose response growth inhibition assay (resazurin, 72 h). As to conditions: Trypanosoma brucei, 72 h; read-out: pEC50 (converted). The format is cell-based. The procedure:
Greiner sterile black clear bottom 384-well assay plates were pre-dispensing with 200 nL of compound in each well, from master plates at 1 mM (100% DMSO) containing selection from the GSK compound collection. Controls of 0% response (control 1, 200 nL of 100%DMSO) and 100% response (control 2, 200 nL of 1 mM pentamidine) were included in each assay plate in columns 6 and 18, respectively. Plates containing 200 nL of 100% DMSO were included randomly in the assay, to assess quality through all process. […] After this period, 10 µL of 200 µM resazurin solution in prewarmed HMI-9 were added to each well, and plates were allowed to incubate 2 hours more prior fluorescence reading in a Wallac EnVision Multilabel Plate Reader (Perkin-Elmer). Raw fluorescent data from the Envision plate reader were uploaded into GSK HTS database (ActivityBase). Activity of each well was normalized as a percentage of inhibition per-plate basis using the following equation: [drawing 1]
For dose-response experiments, serial compound dilutions of selected hits from the primary campaign were plotted against compound concentration. Dose response master plates were prepared by 3-fold dilutions (starting with 10 mM DMSO stock solutions), providing 11 concentrations. From these master plates, 200 nL per well was stamped in final assay plates, including the same controls describe in the primary single shot assay. Compounds were dispensed as serial dilution curve format, with 11 points at 3-fold dilution and 40 µM as starting top concentration (n = 2). Growth inhibition assay was performed as described in previous assay.
A 4-parameter equation describing a sigmoidal dose-response curve was then fitted with an adjustable baseline using ActivityBase XE Runner software. Fitting of dose-response curves and EC50 determination were normalized as percentage of inhibition based on controls. The curve-fit model was based on a 4-parameter equation: [drawing 2]
Trypanosome cell culture. […]
(In general: The colour change of resazurin is a common sign of viable cells or microbes.)

A further data set is described as follows: ChromlogD assay. The settings on record: reversed-phase HPLC column (Luna C18 (2)), pH 7.4. On the procedure:
The Chromatographic Hydrophobicity Index (CHI)[22] values were measured using reversed phase HPLC column (Luna C18 (2), Phenomenex, UK) with a fast acetonitrile gradient at starting mobile phase of pH = 7.4. CHI values are derived directly from the gradient retention times by using a calibration line obtained for standard compounds. The CHI value approximates to the volume % organic concentration when the compound elutes. […] The average error of the assay is ±3 CHI unit or ±0.25 ChromlogD.

For orientation: logD means the decadic logarithm of the distribution of all forms, ionised or not, between an organic phase and buffer at a given pH. A low value points to a more hydrophilic compound.

On to `CCCCn1nc(C)c2c(=O)[nH]c(-c3cccc(N)c3)nc21` [NEU-0001099], for which the EC50 in data set [1] is 398 nM. In the data set “ChromlogD assay”, this compound had a logD of 3.29.

Regarding `O=c1[nH]c(=O)n(CC2CCCCC2)c2nc(N3CCOCC3)sc12` [NEU-0001098], in data set [1], the EC50 is 363 nM. This compound also displayed a logD in the data set “ChromlogD assay” of 4.58.

For the compound `CCn1nccc1NC(=O)c1ncnc2ccc(-c3cccc(S(C)(=O)=O)c3)cc12` [NEU-0001104], the EC50 in data set [1] is 251 nM. Also, the pH-dependent lipophilicity (logD) in “ChromlogD assay” came to 2.82.
